# The campaign covered roughly 94,000 compounds. About 4,000 (4.3%) were called active. This list was built around the results that the source calls inconclusive (neither active nor inactive); the mix of calls is not that of the screen. Calls follow the shape of the dose curve; as a rule, active = well fitted inhibition curve with a large enough effect; inconclusive = small, poorly fitted or top-dose-only effect; inactive = no such curve, though single readings can be large or run the other way. Potencies beside an inconclusive call are fits to weak or partial responses and may not hold up.
# Test: Cytotoxic Profiling in NIH 3T3 Cell Line of Diverse Libraries Using Quantitative High-Throughput Screening; also: nearly all actives have a fitted effect of over 55% in size
# Details: NIH 3T3 viability, CellTiter-Glo ATP luminescence, 48-72 h; activity change, negative = cytotoxicity: at 96.7 µM (top of the series) unless noted; series mostly up to 96.7 µM
# Procedure, shortened: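 NIH 3T3 cells at 400 cells/well received 23 nL of compound by pintool and were incubated 48 or 72 h at 37 °C. Viability was read as ATP-coupled CellTiter-Glo luminescence.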
# % is scaled to controls: 0 for no effect and ±100 for the full control effect; potency is read from the fitted curve at half-maximal effect; tags tell the direction and shape of the fitted curve.
SMILES,Potency,outcome,"activity change, negative = cytotoxicity"
O=[S+]1([O-])N(Cc2ccccc2)C[C@@H](O)[C@]12CCN(Cc1ccc(C(F)(F)F)nc1)C2,"inconclusive: 44.7 µM [inhibitor, partial curve, poor fit]",,
O=C(NCCc1cnc[nH]1)c1ccc2nc(-c3ccc(F)cc3)cn2c1,"inconclusive: 44.7 µM [inhibitor, partial curve]",,
COc1ccc(C(=O)N2CCC3(CC2)N(C)C(=O)CS3(=O)=O)cc1,,inactive,
CC(=O)Nc1ccccc1-c1c(C)nn2c1N(Cc1ccccc1)CCC2,"inconclusive: 79.4 µM [inhibitor, partial curve]",,
Cc1ccc(-c2nnc3ccc(NCc4ccc5c(c4)OCO5)nn23)nc1,"inconclusive: 10 µM [inhibitor, full curve, poor fit]",,
CC1(c2cccnc2)N(CCOc2ccccc2)C(=O)OC12CCN(C(=O)CN1CCOCC1)CC2 (stereo not drawn),"inconclusive: 44.7 µM [inhibitor, partial curve, poor fit]",,
O=C(Cc1ccccc1)N1CCC(c2noc(COc3ccc(F)cc3)n2)CC1,"inconclusive: 50.1 µM [inhibitor, partial curve, poor fit]",,
Cc1cc(S(=O)(=O)N2CCC(N(C(=O)C3CC3)C3CCOCC3)CC2)ccc1Cl,"inconclusive: 7.94 µM [inhibitor, partial curve, poor fit]",,
CCc1ccc(CNC(=O)c2ccc3c(c2)N(CC)C2CCCCCN2C3=O)cc1 (stereo not drawn),"inconclusive: 50.1 µM [inhibitor, partial curve, poor fit]",,
CN(CC(O)COc1cccc(CNCCc2ccc(F)cc2)c1)C1CCCCC1 (stereo not drawn),"inconclusive: 20 µM [inhibitor, full curve, poor fit]",,
O=C(Nc1ccccc1F)N1CC2CCC(C1)N2Cc1ccc(-c2ccsc2)cc1,"inconclusive: 50.1 µM [inhibitor, partial curve, poor fit]",,
CC1=C[C@@H](CNC(=O)CC(C)(C)C)[C@H](C(C)C)C[C@H]1CC(=O)NC1CCCC1,"inconclusive: 39.8 µM [inhibitor, full curve]",,
Cc1nn(Cc2ccccc2)c(C)c1[C@@H]1C=C[C@@H](NS(=O)(=O)c2ccccc2)C1,"inconclusive: 25.1 µM [inhibitor, partial curve, poor fit]",,
COc1cccc(C(=O)Nc2cc(C3CC3)nn2C)c1,,,inactive: -24.3% [at 138 µM]
Fc1ccc(-c2ccc(CNCc3ccco3)o2)cc1,"inconclusive: 50.1 µM [inhibitor, partial curve, poor fit]",,
CN(CCC(O)c1ccccc1)C(=O)c1ccc2oc(-c3cccc(F)c3)nc2c1 (stereo not drawn),"inconclusive: 31.6 µM [inhibitor, partial curve, poor fit]",,
CCN1c2cc(C(=O)Nc3cc(F)ccc3F)ccc2C(=O)N2CCCCCC21 (stereo not drawn),"inconclusive: 50.1 µM [inhibitor, partial curve, poor fit]",,
CCN(C(=O)CN1C(=O)NC(c2ccccc2Cl)C2=C1COC2=O)c1cccc(C)c1 (stereo not drawn),"inconclusive: 70.8 µM [inhibitor, single point]",,
COc1ccc(-c2cc(N3CCCC(NC(=O)c4cccs4)C3)n[nH]2)cc1 (stereo not drawn),"inconclusive: 44.7 µM [inhibitor, partial curve, poor fit]",,
COc1ccc(-c2cc(N3CCCN(C(=O)CCc4ccccc4)CC3)n[nH]2)cc1,"inconclusive: 50.1 µM [inhibitor, partial curve, poor fit]",,
CCCC(=O)N1Cc2ccccc2CC2(CCCCN2CC2CCOCC2)C1 (stereo not drawn),,inactive,

SMILES,Potency,outcome,"activity change, negative = cytotoxicity"
COc1ccc(OC)c(-c2ncc3c(n2)OCCN(c2cccc(C(F)(F)F)c2)C3=O)c1,"inconclusive: 44.7 µM [inhibitor, partial curve, poor fit]",,
O=C1COc2ccc(NCc3cccs3)nc2CN1Cc1ccc(C(F)(F)F)cc1,active: 79.4 µM,,
N#Cc1cccc(C(=O)NC2CCN(c3cc(-c4cccs4)[nH]n3)CC2)c1,"inconclusive: 44.7 µM [inhibitor, partial curve, poor fit]",,
O=C(NC1CCN(c2cc(-c3ccccc3)[nH]n2)CC1)c1cccc(F)c1,"inconclusive: 39.8 µM [inhibitor, partial curve, poor fit]",,
CC[C@@H]1[C@H](NC(=O)C2(c3ccc(S(C)(=O)=O)cc3)CCC2)[C@@H]2CCO[C@H]12,,,inactive: -16.3%
COCCCNC(=O)c1ccc2c(c1)n(Cc1ccccc1)c(=O)c1ccnn12,"inconclusive: 50.1 µM [inhibitor, partial curve, poor fit]",,
COc1cccc(-c2cc(C(=O)NCCCOC(C)C)c3cnn(C)c3n2)c1,"inconclusive: 44.7 µM [inhibitor, partial curve]",,
COc1ccc(-c2ccc(C(=O)Nc3cccc(F)c3)c(Cl)c2)nn1,"inconclusive: 44.7 µM [inhibitor, partial curve, poor fit]",,
C=CCNC(=O)N[C@H]1CCN2C(=O)c3cc(Br)ccc3NC(=O)[C@@H]2C1,,,inactive: -19% [at 174 µM]
COc1cccc(C(=O)N2C(C(=O)NCC(C)C)COC23CCN(C(=O)c2ccc(F)cc2)CC3)c1 (stereo not drawn),,,inactive: -9.89%
O=C(CCC1CCCC1)NCc1nnc2c(-c3nc(C4CC4)no3)cccn12,,inactive,
O=C(NCC1CN(Cc2ccccc2)CC12CN(c1ccccc1)C2)Nc1ccccc1 (stereo not drawn),active: 39.8 µM,,
COCCNc1ncc(-c2cccc(N)c2)c2c1OCC2,"inconclusive: 17.8 µM [inhibitor, full curve, poor fit]",,
O=C1Nc2ccc(-c3ccc(Cl)cc3)cc2C(=O)N2CC[C@H](NC(=O)N3CCOCC3)[C@@H]12,"inconclusive: 70.8 µM [inhibitor, single point]",,
Cc1cc(C(=O)N2CC(F)(F)C[C@H]2c2nc(C3CC3)no2)ccn1,,,inactive: 0.475%
O=C(c1cccc(Br)c1)N1CCCC2(CNc3ncccc3[S+](=O)([O-])N2)C1 (stereo not drawn),,,inactive: -31.8%
CN1C[C@@H](NS(=O)(=O)c2ccc(F)cc2)C[C@H]1c1nc(-c2cccnc2)no1,,,inactive: -25.4% [at 174 µM]
Cc1cc(C)cc(-c2ccc(CN3CCCC3C(=O)NCc3ccc(F)cc3)cc2)c1 (stereo not drawn),"inconclusive: 50.1 µM [inhibitor, partial curve, poor fit]",,
CN(Cc1ccccc1)C(=O)Cc1ccc(N(Cc2ccccc2)C(=O)c2ccco2)cc1,"inconclusive: 50.1 µM [inhibitor, partial curve, poor fit]",,
O=C(NCc1cccc(C(F)(F)F)c1)c1ccc2nnc(-c3ccoc3)n2c1,"inconclusive: 39.8 µM [inhibitor, partial curve]",,
Cn1nc(C2CCN(C(=O)c3ccccc3)CC2)c2c1CCOC2,,,inactive: -0.12%

SMILES,Potency,outcome,"activity change, negative = cytotoxicity"
CC1(C)C(=O)N(Cc2ccccc2)[C@H]2CN(Cc3ccccc3)C[C@H]2[S+]1(=O)[O-],"inconclusive: 89.1 µM [inhibitor, partial curve, poor fit]",,
O=C(CC(c1ccccc1)c1ccccc1F)N1CCN(c2ccncc2)CC1 (stereo not drawn),"inconclusive: 50.1 µM [inhibitor, partial curve, poor fit]",,
COc1ccc(CC2CCOC3(CCNCC3)C2)cc1 (stereo not drawn),"inconclusive: 50.1 µM [inhibitor, partial curve, poor fit]",,
CC(C)(CC(=O)O)CC(=O)N[C@H]1CO[C@H]2[C@@H]1OC[C@@H]2n1nnnc1-c1ccccc1,,inactive [at 138 µM],
COc1ccc(F)cc1-c1ccc(CN2CCC(N[S+](=O)([O-])c3cccc(C(F)(F)F)c3)C2)cc1 (stereo not drawn),active: 12.6 µM,,
Cc1ccc(OCC(=O)N2CCC(CC(=O)N(C)Cc3ccccc3)C2)cc1 (stereo not drawn),"inconclusive: 70.8 µM [inhibitor, single point]",,
O=C(Cn1nc2c(cc1=O)CCCCC2)NCCc1ccccn1,,inactive,
CCCNC(=O)c1cc2c(s1)CCN(C(C)=O)C2,,,inactive: -17.1%
O=C(COc1ccc(NC(=O)C2CC2)cn1)NCc1ccccc1,,,inactive: -5.8%
O=C(N1CCC[C@H]1c1nc(-c2ccccc2Cl)no1)C1(c2ccccc2)CC1,"inconclusive: 50.1 µM [inhibitor, partial curve, poor fit]",,
CC(=O)N(C1CCOCC1)C1CCN(S(=O)(=O)c2ccc(Br)cc2)CC1,,,inactive: -28.8%
CC1(C)C(=O)N(CC2CCOCC2)[C@H]2CN(Cc3cccs3)C[C@@H]2[S+]1(=O)[O-],active: 79.4 µM,,
Cc1ccc(CN2CCC(N3CC(OCC4CC4)C34CCOCC4)CC2)cc1C (stereo not drawn),"inconclusive: 44.7 µM [inhibitor, partial curve]",,
CN1CCN(C(CN)C2CCCCC2)CC1 (stereo not drawn),active: 44.7 µM,,
CCOc1ccc(NC(=O)N2CCc3nc(-c4ccccc4)[nH]c3C2)cc1,"inconclusive: 11.2 µM [inhibitor, partial curve, poor fit]",,
O=C1NC2(CCCN(Cc3ccccc3C(F)(F)F)C2)Oc2ccccc21 (stereo not drawn),"inconclusive: 44.7 µM [inhibitor, partial curve, poor fit]",,
Nc1nc2c(s1)C(c1ccc(F)cc1F)CC(=O)N2 (stereo not drawn),,,inactive: -22.6%
COc1cccc(Nc2ncc3c(n2)C(C)(C(=O)Nc2ccc(OC)nc2)CC3)c1 (stereo not drawn),"inconclusive: 89.1 µM [inhibitor, partial curve, poor fit]",,
Cc1ccc(C(=O)NCCn2cccc2-c2nc(-c3ccccc3)no2)cc1F,,,inactive: -4.26%
COc1ccccc1Nc1ccnc(N2CCC[C@H]2C(=O)NCc2cccc(Cl)c2)n1,"inconclusive: 50.1 µM [inhibitor, partial curve, poor fit]",,
Cn1ncc2c(C(=O)Nc3cccc(Cl)c3)cc(-c3ccc(C(F)(F)F)cc3)nc21,"inconclusive: 22.4 µM [inhibitor, full curve, poor fit]",,
